B1: chr12:47968718:47968836:+|3pUTR|ENSG00000134291|unk|total|mutant (ssRNA)
RNA: GGGAGUUCUACAGUCCGACGAUCCUGGGAGCUUUUUGAAAAGAAAGAAAAAAGUGUGUUGGCUUUUUUUUUUUUCCGAAAGUCCGAAUUGUUUUUACCAAGAGUCUAUGUGGGGCUUGAUUCACCCUUCAUCCAUUGGCUGGACAACAGAGGAUUGAGCAUCA
B2: chr19:34227675:34227687:+|3pUTR|ENSG00000257103|msi1_unk|FALSE|overlapping (ssRNA)
RNA: GGGAGUUCUACAGUCCGACGAUCUUAAAACAUGAGCAUUAAAUAUAUUUGGAAUAGCAGAAGGUUAAGUAAUUUCUUAUGUAUAGUUAAACUAAAGCAGUACUUCAGUGGGACUUAACAAGUAUUUUUUCAUCACUGAAAGGUCAACAGAGGAUUGAGCAUCA
B3: chr6:105099394:105099495:-|3pUTR|ENSG00000112276|msi1|FALSE|unique (ssRNA)
RNA: GGGAGUUCUACAGUCCGACGAUCUCCGUUGAAUGAAGCUCAUUGAUUGGCCAUGCUGGUCAUGUCUAUUUUGCUUCAUCCACUAGAACCAACUUUGAGUCAGUCUCCUGUUACGUUAAAUGGCUAAGAAAAGUUCCAAAUGAACAACAGAGGAUUGAGCAUCA
B4: chr2:37644049:37644150:-|3pUTR|ENSG00000163171|msi1|FALSE|unique (ssRNA)
RNA: GGGAGUUCUACAGUCCGACGAUCUUAGGACAACUAACCAAGUAGACGAAACAAGUUCCCCUAGGCAGGGGUGUCCAAUAUUUUAGCUUCCCUGGACCGCAUUGGAAGAAUUUUCUUGGGCCACAUGUAAAACACACUAACACUCAACAGAGGAUUGAGCAUCA
B5: chrX:100644401:100644502:+|5pUTR|ENSG00000102359|unk|total|mutant (ssRNA)
RNA: GGGAGUUCUACAGUCCGACGAUCUUAACAGAAUCCCGGAGGCCGGGACAGACCAGGAGCCACUCGUUCCCGGAAUGUUAAAGCCGAAGGUUUUUUCCAAUUGAUGAGAGGAGCAGAGAGGAAGGAGAAAGAGGAGGAGAGAGACAACAGAGGAUUGAGCAUCA
B6: chr6:109481629:109481730:-|CDS|ENSG00000112365|unk|FALSE|unique (ssRNA)
RNA: GGGAGUUCUACAGUCCGACGAUCGCUCAGUUCUUAAAAGUCUAUGACCUGGUAAAGGCUUACACAGACUUCCAAAAUAAUCAUAGCUCCCCAAAGCCAACAACUUUGAACACUGCUGGUGCCCCAGUGGUUGUUAUCUCUAAUCAACAGAGGAUUGAGCAUCA
B7: chr10:123051058:123051159:+|CDS|ENSG00000196177|unk|FALSE|unique (ssRNA)
RNA: GGGAGUUCUACAGUCCGACGAUCCAAGUGGCUCACGUGGCCACCCAGCUGGAAGCUGCAAGAUUACUAACAUACAAUGCUGCUAGGCUUUUAGAAGCUGGAAAGCCAUUCAUAAAAGAAGCGUCAAUGGCCAAAUACUAUGCACAACAGAGGAUUGAGCAUCA
B8: chr11:92354873:92354974:+|CDS|ENSG00000165323|unk|total|mutant (ssRNA)
RNA: GGGAGUUCUACAGUCCGACGAUCGUCACUCUUAAAGUUUUUUCCGAUGAUGUCAAUGACUGCUCCCCAGCUUUCAUUCCCAGCCGCUACCGUGUGAAGGUUCUUGAAGAUCUCCCUGUUGGCACUGUCAUUGCUUGGCUUGAGCAACAGAGGAUUGAGCAUCA
B9: chr1:15430058:15430159:+|3pUTR|ENSG00000142634|msi1|FALSE|unique (ssRNA)
RNA: GGGAGUUCUACAGUCCGACGAUCCCUGGAAGCUACGCGGACUUGCAGAGGUUUUAUUUUUUGGCCUUAGAAUCUGCAGAAAUUAGGAGGCACCGAGCCCAGCGCAGCAGCCUCGGACCCGGAUUGCGUUUGCCUUAGCGGAUACAACAGAGGAUUGAGCAUCA
B10: ENSG00000070961:be:win_701|CDS|ENSG00000070961|bound_else_gene|NA|bound_elsewhere_windowed (ssRNA)
RNA: GGGAGUUCUACAGUCCGACGAUCACGAUCUUAAAAUUGAUGAAAGCUCAUUGACUGGUGAAUCAGAUCAUGUUAAAAAGUCUUUAGAUAAGGAUCCCUUACUUCUAUCAGGUACUCAUGUAAUGGAAGGCUCUGGAAGAAUGGCAACAGAGGAUUGAGCAUCA
B11: chr4:42087128:42087229:+|3pUTR|ENSG00000014824|msi1|total|mutant (ssRNA)
RNA: GGGAGUUCUACAGUCCGACGAUCAUUUUGUAUAAUACCGUUCAUACUGUGUCUGUGAGUUUCUUCAGUUACAAAUGGGCAUUCCGUACCGUUAUAUUGACUAUAACAUGUAAGUAAACCGCUUUCUACUGACCCUAAGUUAUCCAACAGAGGAUUGAGCAUCA
B12: chrX:8790794:8791172:-|three_prime_utr|ENSG00000183304|control|control|control (ssRNA)
RNA: GGGAGUUCUACAGUCCGACGAUCCAACUUGAGCUACAGUAAACUACAUGACAGUGUUUUGAUAAUUGUUGUAUAAAUCGGUAUAGCUCCUCUGUCACUUGUCUGUUAAAUGCCAGACCUCGUUUCUAUGAUCUGUUGAAUGAACAACAGAGGAUUGAGCAUCA
B13: chr1:113128187:113128288:+|3pUTR|ENSG00000198799|unk|FALSE|unique (ssRNA)
RNA: GGGAGUUCUACAGUCCGACGAUCUCAUACUUAUUUUCAAUCCUAAGUGUUCUCCCAUGGGCAGCAGCACUUCUUGAGCUGUUUAGUACUGCCACACCUUUUUAUGUCUUUACUAUGUCAGCCUCUGAUCAUUUUCACUUUGAACAACAGAGGAUUGAGCAUCA
B14: chr6:36925625:36925726:+|3pUTR|ENSG00000198663|msi1|total|mutant (ssRNA)
RNA: GGGAGUUCUACAGUCCGACGAUCACUUCUCAAGUUAAUUUUGAUAAGCAGAAUCUACUACUGGCCAGAGCGACAGGAGUGGCCCGGGGUUGCCAGCCAGUCCCUUUCUGAUGAUCAAGGCCCUGCACAGCAGGAUGCCACAGGCAACAGAGGAUUGAGCAUCA
B15: chr15:99139316:99139576:-|CDS|ENSG00000103852|control|control|control (ssRNA)
RNA: GGGAGUUCUACAGUCCGACGAUCCUCUCAUUCAAGGGAGACCUUAGUUUCCUGCUCUCAGCGACACUUCCAUAGCCUCAUGAUAGCUGCUUGGUGUUCUACAGUGUCUCCAGAUCCAGACCCUCUUAUAUGGACCGCAGGACACAACAGAGGAUUGAGCAUCA
B16: chr12:442458:442559:+|3pUTR|ENSG00000120647|unk|total|mutant (ssRNA)
RNA: GGGAGUUCUACAGUCCGACGAUCCCUGAGCAGAGCCUGAAUUACGUUUUUGGGCAAUUUCAUGGUGUUUCACCAGAGGGCGCCCGAGACUCAAACGAAAUGUCCAUCUGGAAAGAUUCGGGAGACACUUUGCCGAGGGGAUGACAACAGAGGAUUGAGCAUCA
B17: chr5:72208420:72208520:+|3pUTR|ENSG00000131711|msi1_unk|FALSE|overlapping (ssRNA)
RNA: GGGAGUUCUACAGUCCGACGAUCCUCAUGAUCAUGACCUUUUUGGUAGUAUUCUUAAACAAAAUUCUACAGAGACUAAAUGUUAGCGAUGAUCCUCCAUUUUCAAUUUUAACCAAUUCUGUCCCCUUUCUCAAAACCCUGAGCCAACAGAGGAUUGAGCAUCA
B18: chrX:52696895:52697518:-|three_prime_utr|ENSG00000241476|control|control|control (ssRNA)
RNA: GGGAGUUCUACAGUCCGACGAUCGAACGUGGUGACCUUUCACGAACAUGGGCAUGGCUGCGGACCCCUCGUCAUCAGGUGCAUAGCAAGUGAAAGCAAGUGUUCACAACAGUGAAAAGUUGAGCGUCAUUUUUCUUAGUGUGCCAACAGAGGAUUGAGCAUCA
B19: chr2:119156242:119156801:-|three_prime_utr|ENSG00000144119|control|control|control (ssRNA)
RNA: GGGAGUUCUACAGUCCGACGAUCCAAGGGAGGAAGGGACGCCCGAGCCCUUGAGGCGGCGGCACAGACUUUGCAAACCUGAUUAGACUGGACAGGCAGGGCCGGGAGCCUGCCCUCCUCAGACAGCCUCCUCCCAGUGCCUAGCAACAGAGGAUUGAGCAUCA
B20: ENSG00000136451:be:win_2701|3pUTR|ENSG00000136451|bound_else_gene|NA|bound_elsewhere_windowed (ssRNA)
RNA: GGGAGUUCUACAGUCCGACGAUCUGUAAAUAUGGACAUCACUUUUUUUUUCUUUGAGAAAACACUUGUAUCAGCUUUGUGGUGUUUUCAGGGAGACAGCUGUCUGCAUUCCCUGUAGAAACCCAGCAAUGAUUAUGCACGUUGCAACAGAGGAUUGAGCAUCA
B21: chr19:2274630:2275679:-|three_prime_utr|ENSG00000188305|control|control|control (ssRNA)
RNA: GGGAGUUCUACAGUCCGACGAUCACACCUGGUCCAGGCCUGCCCAGGAGGCAGGGCUGGGGCUGAGGUCAGCGUCUCCAUGAUAGCCAAGACACCCUCUUCCUGCAGAGUCCAGGAGCGCAGCAGAGAGAGCAAUGCCCCACUCAACAGAGGAUUGAGCAUCA
B22: chr17:77200548:77200649:+|CDS|ENSG00000129657|msi1|total|mutant (ssRNA)
RNA: GGGAGUUCUACAGUCCGACGAUCUAUUGACAAAGCCAGAGAGAUCAUGUGUCAGUCUUUGACGUGGAGAAAGCAGCAUCAGGCCGACUACAUUCUUGAAACCUGGACCCCUCCUCAGGUCCUUCAGGAUUACUACGCGGGAGGCAACAGAGGAUUGAGCAUCA

This is one part of the list.

This assay addresses T1, UNK ZnF1-6 (called full-length) (human, UniProt Q9C0B0 30-357).
T1 sequence: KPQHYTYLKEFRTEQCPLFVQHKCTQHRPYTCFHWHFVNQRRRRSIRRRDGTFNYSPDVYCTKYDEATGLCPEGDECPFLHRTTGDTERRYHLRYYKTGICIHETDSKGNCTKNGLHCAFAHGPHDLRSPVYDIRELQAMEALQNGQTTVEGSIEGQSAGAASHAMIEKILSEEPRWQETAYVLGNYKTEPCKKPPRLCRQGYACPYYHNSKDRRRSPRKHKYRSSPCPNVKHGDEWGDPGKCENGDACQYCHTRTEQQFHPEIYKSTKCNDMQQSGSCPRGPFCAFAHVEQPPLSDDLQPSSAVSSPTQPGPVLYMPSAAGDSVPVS
Nature of the assay: nsRBNS (natural sequence RNA bind-n-seq); RBNS binding buffer (assumed for nsRBNS): 25 mM Tris pH 7.5, 150 mM KCl, 3 mM MgCl2, 0.01% Triton X-100, 500 ug/ml BSA, 20 U/ml SUPERase-In, 4 C; UNK is unkempt and MSI1 is Musashi-1; names of the RNAs are library labels; protein concentration not given here; high values mean tight binding.
On to B1, for which the binding signal was determined as 0.395 enrichment R.
With B2 the figure was 1.37 enrichment R.
With B3 the figure was 0.203 enrichment R; with B4, 1.32 enrichment R.
With B5 the figure was 0.79 enrichment R.
In the case of B6, the binding signal was 0.437 enrichment R.
B7: the binding signal turned out to be 0.436 enrichment R.
In the case of B8, the binding signal came out at 0.655 enrichment R.
With B9 the figure was 1.29 enrichment R; with B10, 0.342 enrichment R.
With B11 the figure was 0.416 enrichment R.
With B12 the figure was 0.374 enrichment R; with B13, 0.646 enrichment R; with B14, 0.837 enrichment R.
B15 displayed a binding signal of 0.826 enrichment R.
Consider B16, for which the binding signal was found to be 0.768 enrichment R.
With B17 the figure was 1.01 enrichment R; with B18, 0.593 enrichment R.
B19 showed a binding signal of 0.798 enrichment R.
As for B20, the figure is 0.369 enrichment R; as for B21, 0.662 enrichment R; as for B22, 0.642 enrichment R.

Source of the values: paper PMC12136788.
